Reference: PubChem BioAssay AID360 (National Center for Advancing Translational Sciences (NCATS), 2006)
The campaign covered roughly 48,000 compounds. About 550 (1.1%) were called active. Roughly 4% stayed inconclusive and do not appear here. Cut-off read from the data, not from the text of the source: active = potency below about 15 µM; inconclusive = mostly about 16 µM to 33 µM; inactive = weaker than that. This is one part of the list.

Biological target: Lysosomal acid glucosylceramidase (Homo sapiens) (UniProt P04062)
Assay: Glucocerebrosidase;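 note: the screen sought inhibitors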
Settings: purified enzyme, resorufin glucoside fluorescence (screen aimed at inhibitors), 20 min
How it was run: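 Wild-type enzyme at 0.2 nM final in 50mM citric acid/KH2PO4, 10mM sodium taurocholate, 0.01% tween-20, pH 5.9, with resorufin beta-D-glucopyranoside at 30 uM final. Compounds titrated, 20 min at RT, red fluorescence read; AC50 from titration.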
Potency is the fitted concentration of half-maximal effect.

UniProt P04062, sequence (P04062 whole entry, looked up): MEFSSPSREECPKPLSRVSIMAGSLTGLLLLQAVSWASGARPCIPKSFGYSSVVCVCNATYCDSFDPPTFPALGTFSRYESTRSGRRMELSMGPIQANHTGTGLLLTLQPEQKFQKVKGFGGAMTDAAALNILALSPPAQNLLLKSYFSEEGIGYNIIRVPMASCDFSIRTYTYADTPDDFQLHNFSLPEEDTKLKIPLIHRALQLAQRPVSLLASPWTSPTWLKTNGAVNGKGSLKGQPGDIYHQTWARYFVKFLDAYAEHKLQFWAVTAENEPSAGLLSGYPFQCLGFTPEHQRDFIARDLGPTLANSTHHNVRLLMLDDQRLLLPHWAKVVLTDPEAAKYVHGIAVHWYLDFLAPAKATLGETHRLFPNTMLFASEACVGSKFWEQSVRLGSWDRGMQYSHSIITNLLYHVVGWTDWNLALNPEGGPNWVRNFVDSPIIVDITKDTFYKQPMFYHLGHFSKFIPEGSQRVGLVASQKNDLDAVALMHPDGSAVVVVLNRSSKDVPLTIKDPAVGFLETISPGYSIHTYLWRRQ

SMILES | Potency
COC(=O)[C@@H](NC(=O)Nc1ccc(OC)cc1)C(C)C | inactive: > 76.9 µM
O=C(N1CCN(Cc2ccccc2)CC1)C12CC3CC(CC(C3)C1)C2 | inactive: > 76.9 µM
CCCc1[nH]nc2c1C(c1ccc(OCCN3CCOCC3)c(OC)c1)C(C#N)=C(N)O2 (stereo not given) | inactive: > 76.9 µM
Cc1ccc(C)c(-n2c(Cc3cc(=O)[nH]c(=O)[nH]3)nnc2SCC(=O)NCC2CCCO2)c1 (stereo not given) | inactive: > 76.9 µM
O=C(COC(=O)c1ccccc1Nc1ccccc1)NCc1ccco1 | inactive: > 76.9 µM
O=C1NC(c2ccccc2)(C(F)(F)F)C(=O)N1Cc1cccnc1 (stereo not given) | inactive: > 76.9 µM
CCNc1nc(NC(C)(C)C)nc(N(C#N)CC)n1 | inactive: > 76.9 µM
Cn1c(CC2C(=O)Nc3ccc(Br)cc32)nc2ccccc2c1=O (stereo not given) | inactive: > 76.9 µM
Cc1cc(C)n2nc(SCC(=O)N(C(C)C)C(C)C)nc2n1 | inactive: > 76.9 µM
C=CCn1c(C)cc(C(=O)CSc2nc3ccccc3c(=O)[nH]2)c1C | inactive: > 76.9 µM
C=CCC(NCc1ccco1)c1ccc(OC)cc1OC (stereo not given) | inactive: > 76.9 µM
COc1ccc(N2CCCCn3c2nc2c3c(=O)n(C)c(=O)n2C)cc1 | inactive: > 76.9 µM
Cc1c(C(O)CN2CCC(C(N)=O)CC2)c2ccccc2n1C (stereo not given) | inactive: > 76.9 µM
COCCNC(=O)CN(C(=O)CCC(=O)Nc1ccccn1)c1ccc(F)cc1 | inactive: > 76.9 µM
Cc1cc2ccccc2c(=O)n1CC(=O)Nc1ccc2c(c1)OCCO2 | inactive: > 76.9 µM
O=C(COC(=O)c1cccs1)NCc1ccc2c(c1)OCO2 | inactive: > 76.9 µM
Cn1c(CC(=O)Nc2ccccc2)nnc1SCCOc1ccccc1 | inactive: > 76.9 µM
Cc1ccc(C)c2[nH]c(=O)c(CN(CCN3CCOCC3)Cc3nnnn3CC3CCCO3)cc12 (stereo not given) | inactive: > 76.9 µM
Cc1cccc(NCN2C(=O)c3ccncc3C2=O)n1 | inactive: > 76.9 µM
COc1ccc(OCC(=O)Nc2ncc3c(n2)CC(C)(C)CC3=O)cc1 | inactive: > 76.9 µM
Cc1ccc(NC(=O)COC(=O)c2ccnn2C)cc1 | inactive: > 76.9 µM
CCOC(=O)C1CCN(C(=O)CN(c2ccc3c(c2)OCO3)S(C)(=O)=O)CC1 | inactive: > 76.9 µM
Cc1cc(=O)oc2cc(OCC(O)CN3CCN(c4ccccc4)CC3)ccc12 (stereo not given) | inactive: > 76.9 µM

SMILES | Potency
O=C(NC(c1ccccc1)c1ccccc1)N1CCN(CCO)CC1 | inactive: > 76.9 µM
CCOc1cc(NC(=O)c2ccco2)c(OCC)cc1NC(=O)CCC(=O)NCc1cccnc1 | inactive: > 76.9 µM
CCn1c(SCC(=O)c2c[nH]c3ccccc23)nnc1-c1cccs1 | inactive: > 76.9 µM
Cc1nn(Cc2ccc(Br)cc2)c(C)c1NC(=O)c1nn(C)cc1Cl | inactive: > 76.9 µM
Oc1c(C(Nc2ccccn2)c2ccccn2)ccc2cccnc12 (stereo not given) | inactive: > 76.9 µM
Cc1cc(C)nc(NC(=O)CSc2nnnn2-c2ccccc2)n1 | inactive: > 76.9 µM
CCOCC(=O)Nc1cccc(Br)c1 | inactive: > 76.9 µM
COC(=O)c1cc(NC(=O)CN2CCC(C(N)=O)(N3CCCCC3)CC2)cc(C(=O)OC)c1 | inactive: > 76.9 µM
O=C(Cn1cnc2c(cnn2-c2ccc(F)cc2)c1=O)N1CCN(c2ccccc2)CC1 | inactive: > 76.9 µM
COc1ccc(N(CC(=O)Nc2ccc(OC)c(Cl)c2)S(=O)(=O)c2c(C)noc2C)cc1 | inactive: > 76.9 µM
COc1ccc(OC)c(S(=O)(=O)Nc2ccccc2C(=O)O)c1 | inactive: > 76.9 µM
c1ccc2ncc(-n3cnnn3)cc2c1 | inactive: > 76.9 µM
COCCNC(=O)c1ccccc1NC(=O)c1ccc(OC)c(OC)c1 | inactive: > 76.9 µM
Cn1cnnc1SCC(=O)N1c2ccccc2-c2c(ssc2=S)C1(C)C | inactive: > 76.9 µM
O=C(CSc1oc(-c2ccco2)nc1S(=O)(=O)c1ccccc1)NCC1CCCO1 (stereo not given) | inactive: > 76.9 µM
N#Cc1cnn(Cc2ccccc2)c1/N=C/N1CCOCC1 | inactive: > 76.9 µM
O=C(c1ccc(Cl)c(Cl)c1)N(Cc1ccco1)c1ccc(O)cc1 | inactive
Cc1ccccc1Cn1cc(NC(=O)c2cc(-c3cccs3)on2)cn1 | inactive: > 76.9 µM
O=C(Nc1cccc(-c2nc3ccccc3[nH]2)c1)c1cccc(NC(=O)c2ccco2)c1 | inactive
C=CCn1c(CCC(=O)O)ccc1-c1ccc(OC)cc1 | inactive: > 76.9 µM
COc1ccc(COn2c(=O)c(C)[n+]([O-])c3ccccc32)cc1OC | inactive: > 76.9 µM
O=C(Nc1ccc(N2CCN(C(=O)c3ccco3)CC2)cc1)c1ccccc1F | inactive: > 76.9 µM
COc1ccc(Br)cc1-c1nc(C)c(C(C)=O)n1O | inactive: > 76.9 µM

SMILES | Potency
C=C(c1ccc(O)cc1)c1ccc(O)cc1 | inactive: > 76.9 µM
Cc1nnc(NC(=O)c2ccc(-c3cccc(C(F)(F)F)c3)o2)s1 | inactive: > 76.9 µM
Cc1ccccc1Nc1nc(N)nc(COC(=O)C(NC(=O)c2ccco2)C(C)C)n1 (stereo not given) | inactive: > 76.9 µM
O=C(Oc1ccc2c(c1)OCO2)c1ccncc1 | inactive: > 76.9 µM
O=C(Nc1cccc(C(=O)N2CCOCC2)c1)c1ncn[nH]1 | inactive: > 76.9 µM
Cc1ccc(S(=O)(=O)Nc2ccc(S(=O)(=O)N3CCCC3)cc2)cc1 | inactive: > 76.9 µM
CCC(C)[C@H](NC(=O)NC1CCCc2ccccc21)C(=O)O (stereo not given in full) | inactive: > 76.9 µM
CCCCN1CCCCC1C(=O)Nc1c(C)cc(C)cc1C (stereo not given) | inactive: > 76.9 µM
Cc1ccc(OCC(=O)n2cnnc2N)c(C)c1 | inactive: > 76.9 µM
O=c1c(O)c(-c2cccs2)oc2ccccc12 | inactive: > 76.9 µM
C=CCn1c(SCc2nc3c(c(=O)[nH]c(=O)n3CCCC)n2CCC)nnc1-c1ccccc1 | inactive: > 76.9 µM
O=C(C1CCCCC1)N1CCN(c2ccccc2F)CC1 | inactive: > 76.9 µM
COC(=O)[C@H](CCSC)NC(=O)NCCC1=CCCCC1 | inactive: > 76.9 µM
Cc1nc(SCC(=O)NCCc2ccccc2)n[nH]1 | inactive: > 76.9 µM
O=C(CCNc1cc(Cl)cc(Cl)c1)c1ccco1 | inactive: > 76.9 µM
Cc1ccc(N2CC(C(=O)N3CCN(C(=O)c4ccco4)CC3)CC2=O)cc1 (stereo not given) | inactive: > 76.9 µM
Cc1c(C(=O)O)oc2ccc(S(=O)(=O)N3CC(C)CC(C)C3)cc12 (stereo not given) | inactive: > 76.9 µM
CCN1CCN(CC(O)COCc2ccccc2)CC1 (stereo not given) | inactive: > 76.9 µM
Cc1ccc(S(=O)(=O)N[C@@H](CC(C)C)C(=O)NCc2ccco2)cc1 | inactive: > 76.9 µM
Cc1cc(C(=O)CN2C(=O)NC(Cc3c[nH]c4ccccc34)C2=O)c(C)n1C (stereo not given) | inactive: > 76.9 µM
CC1=C(C)NC(=S)SC1 | inactive: > 76.9 µM
COc1ccc(C(=O)c2no[n+]([O-])c2C(=O)c2ccc(OC)cc2)cc1 | inactive: > 76.9 µM
CCC(C)(C)n1nnnc1C(CC(C)C)N1CCC(C(N)=O)CC1 (stereo not given) | inactive: > 76.9 µM

SMILES | Potency
Cc1[nH]nc2c1C(c1cccnc1)N(c1ccc(Br)cc1)C2=O (stereo not given) | inactive: > 76.9 µM
COCCn1c(=S)[nH]c2cc(C(=O)N3CCc4ccccc43)ccc2c1=O | inactive: > 76.9 µM
CCOC(=O)C1CCN(C(=O)NC23CC4CC(CC(C4)C2)C3)CC1 | inactive: > 76.9 µM
Cc1cc2oc3c(c(=O)c2cc1C)C(c1cccc(Br)c1)N(Cc1ccco1)C3=O (stereo not given) | inactive: > 76.9 µM
O=S(=O)(NC1CC1)c1cccc(S(=O)(=O)N2CCCC2)c1 | inactive: > 76.9 µM
COc1ccc(OCc2nc(N)nc(Nc3cccc(C)c3C)n2)cc1 | inactive: > 76.9 µM
Nc1nc2ccccc2n1C(=O)CCc1ccccc1 | inactive: > 76.9 µM
CCOc1ccc2[nH]c(=O)c(CN(Cc3cccs3)Cc3nnnn3C(C)(C)CC)cc2c1 | active: 15.3 µM
O=C(CSc1nc2ccccc2n1CC(=O)N1CCCC1)N1CCN(C(=O)c2ccco2)CC1 | inactive: > 76.9 µM
COc1ccc(CNC(=O)c2ccccc2SC)cc1 | inactive: > 76.9 µM
CNC(=O)NC(=O)CSc1ccc(NC(C)=O)cc1 | inactive: > 76.9 µM
Cc1ccc(/C=c2\s/c(=C(/C#N)C(=O)N3CCCC3)n(Cc3ccco3)c2=O)s1 | inactive: > 76.9 µM
COCCNC(=O)Cc1cn(C)c2ccccc12 | inactive: > 76.9 µM
Cc1ccc(S(=O)(=O)N2CCCC2)cc1S(=O)(=O)N1CCCC1 | inactive: > 76.9 µM
CSCCC(NC(=O)C1CCC(C)CC1)C(=O)N1CCN(c2ccccn2)CC1 (stereo not given) | inactive: > 76.9 µM
Cc1cccc2cc3c(NC(=O)C(C)C)nn(C)c3nc12 | inactive: > 76.9 µM
Cc1ccc(-c2c3c(=O)n(C)c(=O)n(C)c3cn2Cc2ccccn2)cc1 | inactive: > 76.9 µM
CC1=C(C(=O)OC(C)C)C(c2cccs2)N2C(=O)C(C)SC2=N1 (stereo not given) | inactive: > 76.9 µM
COc1ccc(C(C)=O)c(OC(=O)c2ccc(OC)c(OC)c2)c1 | inactive: > 76.9 µM
CC1CCN(CCCNC(=O)COc2cc(=O)n(C)c3ccccc23)CC1 | inactive: > 76.9 µM
CC1CC(=O)c2cnc(Nc3cccc(C(F)(F)F)c3)nc2C1 (stereo not given) | inactive: > 76.9 µM
